A lower IC50 marks a more sensitive line; where the fit passes the top or lowest dose, that dose stands as a limit. AUC is the area under the same curve over the 256-fold range up to the top dose, as a fraction; the more sensitive the line, the further below 1. For part of these data: An inferred top dose is not printed in the source and was worked back from the curve model.
Experiments:
Assay in all cases: Viability of human cancer cell lines after 72 h of drug (GDSC screen)
XMD15-27 = compound: C=CC(=O)Nc1ccc(C(=O)c2sc(Nc3ccc(N4CCN(C)CC4)cc3OC)nc2N)cc1 [XMD15-27]; conditions: top dose 10.24 µM; top dose inferred
Protocol: (§1)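 Human cancer cell lines in 384-well plates, medium with 10% serum, drug for 72 h over a 256-fold dose range (nine 2-fold or five 4-fold steps up to the top dose). Adherent lines were fixed and stained with the nucleic acid dye Syto60, suspension lines read with resazurin; signal relative to control wells, capped at 0 and 100%. One two-parameter sigmoid per drug and line, fitted in a mixed model over all curves with the slope shared within a line.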

SL 0101-1 = compound: CC(=O)O[C@@H]1[C@@H](OC(C)=O)[C@@H](O)[C@H](Oc2c(-c3ccc(O)cc3)oc3cc(O)cc(O)c3c2=O)O[C@H]1C [SL 0101-1]; conditions: top dose 10 µM; top dose inferred
Protocol: as §1

Temsirolimus = compound: CO[C@H]1C[C@@H]2CC[C@@H](C)[C@@](O)(O2)C(=O)C(=O)N2CCCC[C@H]2C(=O)O[C@H]([C@H](C)C[C@@H]2CC[C@@H](OC(=O)C(C)(CO)CO)[C@H](OC)C2)CC(=O)[C@H](C)/C=C(\C)[C@@H](O)[C@@H](OC)C(=O)[C@H](C)C[C@H](C)/C=C/C=C/C=C/1C [Temsirolimus]; conditions: top dose 0.2 µM
Protocol: as §1

Row | Cell Line | AUC (XMD15-27) | IC50 (XMD15-27) [µM] | AUC (SL 0101-1) | IC50 (SL 0101-1) [µM] | AUC (Temsirolimus) | IC50 (Temsirolimus) [nM]
1 | CMK (acute myeloid leukaemia, suspension) | 0.948 | > 10.2 | 0.985 | > 10 | 0.937 | > 200
2 | COLO-205 (large intestine, suspension) | 0.988 | > 10.2 | 0.967 | > 10 | 0.932 | > 200
3 | COLO-320-HSR (large intestine, suspension) | 0.991 | > 10.2 | 0.992 | > 10 | 0.976 | > 200
4 | COLO-668 (small cell lung carcinoma, adherent) | 0.989 | > 10.2 | 0.983 | > 10 | 0.982 | > 200
5 | COLO-678 (large intestine, semi-adherent) | 0.983 | > 10.2 | 0.979 | > 10 | 0.967 | > 200
6 | COLO-679 (melanoma, adherent) | 0.98 | > 10.2 | 0.985 | > 10 | 0.906 | > 200
7 | COLO-680N (oesophagus, adherent) | 0.984 | > 10.2 | 0.986 | > 10 | 0.953 | > 200
8 | COLO-684 (endometrium, suspension) | 0.958 | > 10.2 | 0.981 | > 10 | 0.722 | 58.5
9 | COLO-783 (melanoma, adherent) | 0.986 | > 10.2 | 0.98 | > 10 | 0.915 | > 200
10 | COLO-800 (melanoma, adherent) | 0.979 | > 10.2 | 0.987 | > 10 | 0.781 | 80.3
11 | COLO-824 (breast, adherent) | 0.973 | > 10.2 | 0.957 | > 10 | 0.988 | > 200
12 | COR-L23 (large cell lung carcinoma, adherent) | 0.976 | > 10.2 | 0.944 | > 10 | 0.903 | > 200
13 | COR-L88 (small cell lung carcinoma, adherent) | 0.986 | > 10.2 | 0.984 | > 10 | 0.972 | > 200
14 | COR-L95 (small cell lung carcinoma, adherent) | 0.986 | > 10.2 | 0.987 | > 10 | 0.962 | > 200
15 | COR-L279 (small cell lung carcinoma, suspension) | 0.988 | > 10.2 | 0.991 | > 10 | 0.977 | > 200
16 | COR-L321 (lung, suspension) | 0.945 | > 10.2 | 0.98 | > 10 | 0.97 | > 200
17 | CP50-MEL-B (melanoma, adherent) | 0.988 | > 10.2 | 0.972 | > 10 | 0.915 | > 200
18 | CP66-MEL (melanoma, adherent) | 0.986 | > 10.2 | 0.986 | > 10 | 0.915 | > 200
19 | CPC-N (small cell lung carcinoma, suspension) | 0.985 | > 10.2 | 0.984 | > 10 | 0.939 | > 200

Row | Cell Line | AUC (XMD15-27) | IC50 (XMD15-27) [µM] | AUC (SL 0101-1) | IC50 (SL 0101-1) [µM] | AUC (Temsirolimus) | IC50 (Temsirolimus) [nM]
20 | CS1 (bone, adherent) | 0.945 | > 10.2 | 0.984 | > 10 | 0.667 | 38.8
21 | CTB-1 (B-cell lymphoma, suspension) | 0.934 | > 10.2 | 0.978 | > 10 | 0.576 | 21.8
22 | CTV-1 (acute myeloid leukaemia, suspension) | 0.969 | > 10.2 | 0.991 | > 10 | 0.657 | 31
23 | CW-2 (large intestine, adherent) | 0.976 | > 10.2 | 0.981 | > 10 | 0.987 | > 200
24 | Ca9-22 (head and neck, adherent) | 0.983 | > 10.2 | 0.977 | > 10 | 0.737 | 55.9
25 | Ca-Ski (cervix, adherent) | 0.968 | > 10.2 | 0.983 | > 10 | 0.633 | 30.4
26 | CaR-1 (large intestine, adherent) | 0.978 | > 10.2 | 0.955 | > 10 | 0.934 | > 200
27 | Calu-3 (lung adenocarcinoma, adherent) | 0.983 | > 10.2 | 0.949 | > 10 | 0.87 | > 200
28 | Calu-6 (lung adenocarcinoma, adherent) | 0.983 | > 10.2 | 0.983 | > 10 | 0.967 | > 200
29 | Caov-4 (ovary, adherent) | 0.968 | > 10.2 | 0.98 | > 10 | 0.927 | > 200
30 | Capan-2 (pancreas, adherent) | 0.982 | > 10.2 | 0.965 | > 10 | 0.982 | > 200
31 | D-247MG (glioma, adherent) | 0.815 | 8.45 | 0.975 | > 10 | 0.729 | 72.6
32 | D-263MG (glioma, adherent) | 0.983 | > 10.2 | 0.963 | > 10 | 0.75 | 77.4
33 | D-283MED (medulloblastoma, adherent) | 0.991 | > 10.2 | 0.977 | > 10 | 0.943 | > 200
34 | D-336MG (glioma, adherent) | 0.978 | > 10.2 | 0.981 | > 10 | 0.685 | 48
35 | D-392MG (glioma, adherent) | 0.98 | > 10.2 | 0.958 | > 10 | 0.709 | 60.9
36 | D-423MG (glioma, adherent) | 0.936 | > 10.2 | 0.958 | > 10 | 0.808 | 132
37 | D-502MG (glioma, adherent) | 0.96 | > 10.2 | 0.97 | > 10 | 0.836 | > 200

From the supplement of paper PMC4967469
